Assay [1] has as its target T1, IL-2Rα (CD25) on primary human CD8^+ CD25^+ T cells (human, UniProt P01589 22-272).
T1 sequence (looked up): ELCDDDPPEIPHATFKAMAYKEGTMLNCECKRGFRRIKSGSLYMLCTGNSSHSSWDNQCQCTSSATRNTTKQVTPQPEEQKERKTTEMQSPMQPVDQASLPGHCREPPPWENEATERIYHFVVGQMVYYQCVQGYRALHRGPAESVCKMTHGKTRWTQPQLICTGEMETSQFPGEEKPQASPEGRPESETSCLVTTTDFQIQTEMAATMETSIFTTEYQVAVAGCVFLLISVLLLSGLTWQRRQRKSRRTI
Briefly: cell-based or functional assay.

The next assay has as its target T2, IL-2Rβ IH-Biotin (Homo sapiens (Human), UniProt P14784 27-240, biotin on the avi tag (enzymatic labeling with His-BirA)).
T2 construct: also called IL-2Rβ IH (in house); CD122
T2 sequence: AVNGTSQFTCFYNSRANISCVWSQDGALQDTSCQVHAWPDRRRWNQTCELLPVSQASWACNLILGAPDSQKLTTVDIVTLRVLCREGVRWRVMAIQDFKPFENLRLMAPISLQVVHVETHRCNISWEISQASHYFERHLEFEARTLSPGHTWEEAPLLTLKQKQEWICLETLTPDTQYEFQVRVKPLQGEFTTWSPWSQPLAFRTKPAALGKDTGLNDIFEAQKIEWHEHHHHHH
Briefly: BLI (Octet Red96): biotinylated receptor on SA sensor, 100 nM Fc fusion in solution, 1:1 model. Here is the method: A BLI affinity assay was performed according to the prior art (Estep, P, et al., High throughput solution based measurement of antibody-antigen affinity and epitope binning. MAbs, 2013.5(2): p. 270-8). […] Kinetic analysis was performed on the assay results using a 1:1 binding model.
A general note: BLI is a label-free optical method that tracks binding on a fibre tip over time.

B1: Y07 IL-2^mutant-FC fusion protein (Fc fusion)
chain: APTSSSTKKTQLQLEHLLLDLQMILNGINNYKNPDLTWMLTEEFKMPKKATELKHLQCLEEELKPLEKVLNLAQSKNFHLDTEDLIENINVMVLELKGSETTFMCEYADETATIVEFLNRWITFSQSIISTLTGGGGSGGGGS[human IgG1 Fc with changes left out here]
notes: Combines IBYDL029 mutant Y30G4 and IBYDL031 mutant Y27F6
What is called Kd is the concentration at which binding is half-saturated. Low values mean higher affinity, high ones lower affinity. Turning to B1, the “Ratio of CD25^- EC50/CD25^+ EC50 (donor1)” value in assay [1] was 2. The Kd in the assay with IL-2Rβ IH-Biotin was determined as 0.16 nM.

B2: Y05 IL-2^mutant-FC fusion protein (Fc fusion)
chain: APTSSSTKKTQLQLEHLLLDLQMILNGINNYKNPDLEDMLTFYFKMPKKATELKHLQCLEEELKPLEEVLNFAQSKNFHLDTEDLIDNINVLVLELKGSETTFMCEYADETATIVEFLNRWITFSQSIISTLTGGGGSGGGGS[human IgG1 Fc with changes left out here]
notes: Combines IBYDL029 mutant Y29D6 and IBYDL031 mutant Y27D4
B2 had a Kd in the assay with IL-2Rβ IH-Biotin of 0.096 nM.

B3: Y08 IL-2^mutant-FC fusion protein (Fc fusion)
chain: APTSSSTKKTQLQLEHLLLDLQMILNGINNYKNPELTRMLQRDFYMPKKATELKHLQCLEEELKPLEYVLNLAQSKNFDLDPRDLIDNINVLVLELKGSETTFMCEYADETATIVEFLNRWITFSQSIISTLTGGGGSGGGGS[human IgG1 Fc with changes left out here]
notes: Combines IBYDL029 mutant Y29F3 and IBYDL031 mutant Y28A2
In turn, B3 displayed a Kd with IL-2Rβ IH-Biotin of 0.41 nM.

B4: Y09 IL-2^mutant-FC fusion protein (Fc fusion)
chain: APTSSSTKKTQLQLEHLLLDLQMILNGINNYKNPDLTWMLTEYFRMPKKATELKHLQCLERELKPLEYVLNLAQSKNFELNAEDLIDNINVLVLELKGSETTFMCEYADETATIVEFLNRWITFSQSIISTLTGGGGSGGGGS[human IgG1 Fc with changes left out here]
modifications: Homodimer through the Fc hinge disulfides; one chain is given.
notes: Combines IBYDL029 mutant Y30B4 and IBYDL031 mutant Y28A5
Molecule B4 displayed a Kd with IL-2Rβ IH-Biotin of 0.14 nM.

B5: Y04 IL-2^mutant-FC fusion protein (Fc fusion)
chain: APTSSSTKKTQLQLEHLLLDLQMILNGINNYKNPDLKEMLKQDFYMPKKATELKHLQCLEEELKPLEYVLNLAQSKNFELDTEDLIENINLIVLELKGSETTFMCEYADETATIVEFLNRWITFSQSIISTLTGGGGSGGGGS[human IgG1 Fc with changes left out here]
notes: Combines IBYDL029 mutant Y27A3 and IBYDL031 mutant Y27D2
The molecule B5 returned a Kd in the assay with IL-2Rβ IH-Biotin of 0.13 nM. The Kd values of the last two molecules are within 1.5-fold of each other.

B6: Y03 IL-2^mutant-FC fusion protein (Fc fusion)
chain: APTSSSTKKTQLQLEHLLLDLQMILNGINNYKNPELTWMLTQKFKMPKKATELKHLQCLELELKPLERVLNLAQSKNFHLDAEDLIENINVLVLELKGSETTFMCEYADETATIVEFLNRWITFSQSIISTLTGGGGSGGGGS[human IgG1 Fc with changes left out here]
notes: Combines IBYDL029 mutant Y30C1 and IBYDL031 mutant Y27C5
Regarding B6, the Kd with IL-2Rβ IH-Biotin is 0.14 nM.

B7: Y11 IL-2^mutant-FC fusion protein (Fc fusion)
chain: APTSSSTKKTQLQLEHLLLDLQMILNGINNYKNPELKEMLEFEFYMPKKATELKHLQCLEEELKPLEEVLNFAQSKNFELDAEDLIENINVMVLELKGSETTFMCEYADETATIVEFLNRWITFSQSIISTLTGGGGSGGGGS[human IgG1 Fc with changes left out here]
modifications: Homodimer through the Fc hinge disulfides; one chain is given.
notes: Combines IBYDL029 mutant Y30E6 and IBYDL031 mutant Y28F5
Consider B7, for which the affinity in the assay with IL-2Rβ IH-Biotin, expressed as Kd, was 0.34 nM. This Kd is about 2.4-fold higher than that of the molecule before.

B8: Y06 IL-2^mutant-FC fusion protein (Fc fusion)
chain: APTSSSTKKTQLQLEHLLLDLQMILNGINNYKNPELYWMLYEEFKMPKKATELKHLQCLEEELKPLEEVLNKAQSKNFQLDAEDLIENINVIVLELKGSETTFMCEYADETATIVEFLNRWITFSQSIISTLTGGGGSGGGGS[human IgG1 Fc with changes left out here]
notes: Combines IBYDL029 mutant Y29F4 and IBYDL031 mutant Y27E1
The molecule B8 yielded a Kd with IL-2Rβ IH-Biotin of 0.48 nM.

B9: Y01 IL-2^mutant-FC fusion protein (Fc fusion)
chain: APTSSSTKKTQLQLEHLLLDLQMILNGINNYKNPDLEEMLEFEFKMPKKATELKHLQCLEEELKPLEEVLNFAQSKNFELDIEDLIDNINVIVLELKGSETTFMCEYADETATIVEFLNRWITFSQSIISTLTGGGGSGGGGS[human IgG1 Fc with changes left out here]
notes: Combines IBYDL029 mutant Y30C2 and IBYDL031 mutant Y27C1
As to B9, the affinity with IL-2Rβ IH-Biotin, expressed as Kd, was 0.069 nM.

B10: Y10 IL-2^mutant-FC fusion protein (Fc fusion)
chain: APTSSSTKKTQLQLEHLLLDLQMILNGINNYKNPDLTFMLEEKFKMPKKATELKHLQCLEEELKPLEYVLNLAQSKNFHLDTEDLIDNINLLVLELKGSETTFMCEYADETATIVEFLNRWITFSQSIISTLTGGGGSGGGGS[human IgG1 Fc with changes left out here]
modifications: Homodimer through the Fc hinge disulfides; one chain is given.
notes: Combines IBYDL029 mutant Y30E3 and IBYDL031 mutant Y28F1
Consider B10, for which the “Ratio of CD25^- EC50/CD25^+ EC50 (donor1)” value in assay [1] was 2. The molecule further registered a Kd with IL-2Rβ IH-Biotin of 0.11 nM.

B11: Y02 IL-2^mutant-FC fusion protein (Fc fusion)
chain: APTSSSTKKTQLQLEHLLLDLQMILNGINNYKNPELTDMLEFEFYMPKKATELKHLQCLEEELKPLEEVLNFAQSKNFHLDAEDLIENINVMVLELKGSETTFMCEYADETATIVEFLNRWITFSQSIISTLTGGGGSGGGGS[human IgG1 Fc with changes left out here]
notes: Combines IBYDL029 mutant Y29A4 and IBYDL031 mutant Y27C2
As to B11, binding with IL-2Rβ IH-Biotin was put at a Kd of 0.31 nM.

These data come from US20210221863A1 (Innovent, published 2021).
